About 7,600 (2.4%) of roughly 320,000 compounds were called active. This list was built around the results that the source calls inconclusive (neither active nor inactive); the mix of calls is not that of the screen. The call rests on the fitted dose curve; in most records, active means well fitted activation curve with a large enough effect; inconclusive means small, poorly fitted or top-dose-only effect; inactive means no such curve, though single readings can be large or run the other way. A potency beside an inconclusive call is a rough fit, not a confirmed value.
Assay: qHTS Assay for NPC1 Promoter Activators; further: nearly all actives have a fitted effect of over 60% in size
Details: Huh7 NPC1 promoter luciferase reporter, 24 h; series mostly up to 9.22 µM
Summary of the method: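 Luminescence from an NPC1 promoter-driven luciferase reporter in stably transfected Huh7 cells was measured after 24 h compound treatment at 37 °C, followed by 10 min ambient incubation with luciferase detection reagent.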
Potency means the concentration at half of the fitted maximal effect; tags describe the fitted curve by direction and shape.

Potency, active:
CCc1ccc(C(=O)Nc2ccc3nc(C)ccc3c2)cc1 3.55 µM
CSc1ccc(CNc2ccc(C)cc2)cc1 3.55 µM
Cc1nnc(NC(=O)c2ccc3ccccc3c2)s1 1.78 µM
Cc1cnc(NC(=O)c2ccc(OCC3CCCO3)cc2)s1 (configuration not stated) 0.501 µM
O=C(Nc1ccc2c(c1)OCO2)Nc1ccc(F)cc1F 1.41 µM
O=C(Nc1ccc2c(c1)OCCO2)c1ccc(Br)o1 1.26 µM
COc1ccc(Nc2nc(-c3cccs3)cs2)cc1 2.51 µM
CCOC(=O)CSc1nc2cc(OC)ccc2cc1C#N 0.794 µM
O=C(N/N=C/c1ccccc1)c1n[nH]c2c1CCCC2 0.562 µM
O=C(Nc1ccc(F)cc1)c1ccc2ncsc2c1 2.24 µM
O=C(Nc1nc2c(F)cc(F)cc2s1)c1ccc([N+](=O)[O-])o1 2.24 µM
C#CCSc1nnc(-c2ccc(OC)cc2)o1 2.82 µM
CCOc1ccc(N(CC(=O)Nc2ccc(C)c(C)c2)S(C)(=O)=O)cc1 2.82 µM
COc1ccc(C(=O)Nc2nc3cc4c(cc3s2)OCO4)c(OC)c1 0.794 µM
Cc1cccc(C(=O)Nc2ccc(N3CCN(S(C)(=O)=O)CC3)cc2)c1 4.47 µM
Cc1ccccc1C(=O)Nc1ccc(Cl)cn1 2.51 µM
CS/C(N)=N/N=C/c1cc(C)ccc1O 1.12 µM
CNC(=S)Nc1ccc(-c2nc3ccc(C)cc3s2)cc1 0.794 µM
CCOc1cccc(/C=C/c2ccc3cccc(O)c3n2)c1OC 3.16 µM
CCOC(=O)/C(C#N)=C/Nc1ccccc1OC 3.16 µM

Potency, inconclusive:
Cc1ccccc1NC(=O)C(=O)c1cn(C)c2ccccc12 5.01 µM [activator, single point]
CCn1nnc2sc3c(c2c1=O)CCC(C)C3 (configuration not stated) 3.98 µM [activator, partial curve]
CC(=O)N1CCN(c2ccc(NC(=O)c3ccccc3)cc2)CC1 2.82 µM [activator, partial curve]
CCOc1nc(C)ccc1-c1noc(-c2ccco2)n1 5.01 µM [activator, single point]
CCC(Oc1ccccc1)C(=O)Nc1ccc(-c2nnc(-c3ccco3)o2)cc1 (configuration not stated) 3.55 µM [activator, partial curve]
CCOc1ccc(/C=C/C(=O)c2c(O)cc(C)oc2=O)cc1 2.82 µM [activator, partial curve]
Cc1nc(N)sc1-c1csc(Nc2ccccc2)n1 3.16 µM [activator, single point]
CCSc1nnc(NC(=O)Nc2cccc(C)c2)s1 3.55 µM [activator, partial curve]
CCN(CCn1cccn1)C(=O)CCc1nnc(CCCc2ccccc2)o1 2.82 µM [activator, single point]
COCCNc1oc(-c2ccc(Cl)cc2)nc1C#N 3.98 µM [activator, partial curve]
COC(=O)c1cnn(-c2cc(Oc3ccccc3)ncn2)c1N 6.31 µM [activator, single point]
O=C(c1ccccc1)c1ccc2n1CCC2C(=O)O (configuration not stated) 10.3 µM [activator, partial curve]
Cc1ccc(-c2[nH]n3c(=O)c4c(nc3c2C)CCCC4)cc1 3.98 µM [activator, single point]
Fc1ccc(/C=N/Nc2nccnc2Cl)cc1 2.51 µM [activator, partial curve]
Cc1ccc2oc(C(=O)NCC(c3ccco3)N(C)C)c(C)c2c1 (configuration not stated) 2.24 µM [activator, partial curve]
CC(=O)c1cccc(NC(=O)c2cc3nc(C)cc(C)n3n2)c1 1.58 µM [activator, partial curve]
Cc1ccc(N/N=C/c2ccncc2)cc1 5.62 µM [activator, single point]
O=[N+]([O-])c1cccnc1Oc1ccc(C2SCCS2)cc1 3.55 µM [activator, partial curve]
N=C1S/C(=C\c2ccco2)C(=O)N1c1nccs1 3.98 µM [activator, partial curve]
CCCC1CCc2c(sc(NC(=O)c3cccs3)c2C(N)=O)C1 (configuration not stated) 3.55 µM [activator, single point]
Cc1nn(-c2ccccc2)c(N)c1-c1ccccc1 3.98 µM [activator, partial curve]
Cc1ccc(C(=O)Nc2ccc(Br)c(C(F)(F)F)c2)cc1 3.16 µM [activator, partial curve]
Brc1ccccc1-c1nnc(-c2cccnc2)o1 2.51 µM [activator, partial curve]
CCC1C(=O)n2nc(-c3ccccc3)cc2N=C1C (configuration not stated) 5.62 µM [activator, single point]
CCOc1ccc(-c2nnc(NC3=NCCCCC3)o2)cc1 0.501 µM [activator, full curve]
O=C1c2ccccc2C(=O)N1c1ccc(-c2nc3ccccc3o2)cc1 3.16 µM [activator, partial curve]
Oc1c(Br)cc(C=Nc2ccc3nc(-c4ccccc4)[nH]c3c2)c(O)c1Br 3.55 µM [activator, partial curve]
COCn1c(-c2ccc(OC)cc2)nc2ccccc21 2.51 µM [activator, partial curve]
CC(C)c1ccc(NC(=O)COc2ccccn2)cc1 3.98 µM [activator, single point]
COc1cccc(C(=O)Nc2ccc(F)c(F)c2F)c1 3.98 µM [activator, partial curve]
O=C(CCS(=O)(=O)c1cccs1)N1CCCC1 2 µM [activator, partial curve]
COc1cccc(CNC(=O)CCC2CCCN(C(=O)c3cc4ccccc4o3)C2)c1 (configuration not stated) 5.62 µM [activator, single point]
COc1ccc2c(=O)cc(-c3ccccc3F)oc2c1 5.62 µM [activator, single point]
CC(C)NC(=O)CCc1nnc(Cc2cccc(C(F)(F)F)c2)o1 2.82 µM [activator, partial curve]
Cc1cccc(Nc2nc(-c3ccccc3)cs2)n1 3.55 µM [activator, single point]
C=CCN(C(=O)Nc1ccc2oc(C)nc2c1)c1ccccc1 2.51 µM [activator, partial curve]
O=C(Nc1cccnc1)c1sc2cccc(F)c2c1Cl 3.98 µM [activator, single point]
Brc1ccccc1OCCCOc1cccc2cccnc12 5.62 µM [activator, single point]
Cc1ccc(C)c(Nc2cc(C)nc3ncnn23)c1 0.891 µM [activator, partial curve]
CCOC(=O)c1cnc(Nc2ccc(OCC)cc2)nc1C 3.98 µM [activator, partial curve]
COCCn1c(C)cc(C2=NNC(=Nc3ccccc3F)SC2)c1C 0.316 µM [activator, partial curve]
N#Cc1cccc(-c2nnc(SCc3ccccc3C#N)o2)c1 3.16 µM [activator, partial curve, poor fit]

Potency, inactive:
O=C(COC(=O)C1CC1)NCc1ccccc1
Cc1ccc(NC(=O)C2C(=O)N(C)c3ccccc32)cc1 (configuration not stated)
Cc1cccc(/C=C2\Sc3ccc(C(=O)N4CCCCC4)cc3N(C)C2=O)c1
O=C(Nc1ccccc1)Nc1cc([N+](=O)[O-])ccc1F
Cc1cccc(C)c1NC(=O)CNC(=O)c1ccc2c(c1)OCCO2
CCC(=O)N1CCc2cc(S(=O)(=O)CCC(=O)Nc3ccc(C)cn3)ccc21
COc1ccc(-c2csc(C)n2)cc1OC
Cc1ccc(S(=O)(=O)Nc2cnn(-c3ccccc3)c(=O)c2Cl)cc1
O=C(c1ccccc1Br)N(Cc1ccccc1)c1ccccc1
Cn1nccc1C(=O)N1CCCC(N2CCN(Cc3ccc4c(c3)OCO4)CC2)C1 (configuration not stated)
COc1ccc(C(=O)NCCNc2nc3ccc(C)cc3cc2C#N)cc1OC
CC1CCc2[nH]c3ccc(C(=O)NCC4CCCO4)cc3c2C1 (configuration not stated)
Cc1ccc(CN2CCN(CC(=O)N/N=C/c3ccccc3F)CC2)cc1
CC(=O)N=C1SC2CS(=O)(=O)CC2N1Cc1ccc(C)cc1 (configuration not stated)
CCOC(=O)CC1C(=O)NCCN1C(=O)c1ccc(Cl)c(Cl)c1 (configuration not stated)
Cc1nn(-c2ccc(C(=O)N3CCN(S(=O)(=O)c4ccccc4C(F)(F)F)CC3)cc2)c(C)c1Cl
CCCCN(C(=O)C1=CC=CN2CCS(=O)(=O)N=C12)c1ccccc1
CC(C)(C)c1ccc(COC(=O)Nc2ccc(F)cc2)cc1
Brc1cccc(-c2nnco2)c1
CC(C)c1ccc(C2c3[nH]c4ccccc4c3C[C@H]3C(=O)N(c4ccccc4C(=O)N4CCC[C@@H]4C(=O)O)C(=O)N23)cc1 (some centres not stated)

Reference: PubChem BioAssay AID485313 (National Center for Advancing Translational Sciences (NCATS), 2010)
